Assay results reported in PubChem BioAssay AID504832 (National Center for Advancing Translational Sciences (NCATS), 2011).
About 18,000 (5.8%) of roughly 310,000 compounds were called active. Inconclusive results, whose numbers are uncertain, are shown with a selection of clear calls. Calls follow the shape of the dose curve; as a rule, active = well fitted inhibition curve with a large enough effect; inconclusive = small, poorly fitted or top-dose-only effect, or another doubt; inactive = no such curve, though single readings can be large or run the other way. Potencies of inconclusive entries are left out as doubtful fits.
Potency is read from the fitted curve at half-maximal effect; tags tell the direction and shape of the fitted curve.

Assay: Primary qHTS for delayed death inhibitors of the malarial parasite plastid, 48 hour incubation
Details: P. falciparum luciferase growth in erythrocytes; series mostly up to 28.7 µM
How it was run: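 Parasite viability was followed by luminescence of a genomically integrated firefly luciferase. Cultures held 0.1% parasitemia at 2% hematocrit (final), incubated under 5% CO2 at 37 C.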
For `COc1ccc2oc(-c3ccccc3[N+](=O)[O-])cc(=O)c2c1`, the Potency was inconclusive [inhibitor, single point]. With `O=C(O)c1cc(/C=C/C(=O)c2cc(F)ccc2O)c2c(c1)COCO2` the Potency was “inactive”. With `CCCc1cc(C(=O)Cc2nc3ccccc3s2)c(O)cc1O` the Potency was inconclusive [inhibitor, single point]. With `CCC[C@H]1CCCC/C=C\CCCC(=O)OCCN1C(=O)OC(C)(C)C` the Potency was inconclusive [inhibitor, partial curve]. In the case of `COc1ccc(CCN(C)C(=O)CN2C(=O)c3ccccc3S2(=O)=O)cc1OC`, the Potency is reported as “inactive”. In the case of `CCCC(=O)c1cc(F)c(N2CCN(S(=O)(=O)c3ccccc3)CC2)cc1C`, the Potency is reported as inconclusive [inhibitor, single point]. With `O=C1NC(c2ccccc2)Nc2c1sc(=S)n2-c1ccccc1` (configuration not stated) the Potency was “inactive”. For `CS(=O)(=O)Nc1ccc(C2=NN(S(=O)(=O)c3ccccc3)C(c3cccs3)C2)cc1` (configuration not stated), the Potency was inconclusive [inhibitor, single point]. For `NC(=O)C1CCN(C(=O)COc2cccc3cccnc23)CC1`, the Potency was “inactive”. With `Cc1ccc(Nc2c(-c3cccnc3)nc3ccc(Br)cn23)cc1` the Potency was inconclusive [inhibitor, single point]. In the case of `Cc1ccc2c(C(=O)CN3CCN(C(=O)c4ccco4)CC3)c(C)[nH]c2c1`, the Potency is reported as inconclusive [inhibitor, full curve, poor fit]. With `C=CCn1c(SCc2ccccc2Cl)nnc1-c1sc2nc(C)cc(C)c2c1N` the Potency was active: 11.7 µM. In the case of `NC(=S)N/N=C/c1ccccc1OC(=O)/C=C/c1ccccc1`, the Potency is reported as inconclusive [inhibitor, full curve]. In the case of `CCOC(=O)c1ccc2ncc(C(=O)OCC)c(NCCN3CCOCC3)c2c1`, the Potency is reported as inconclusive [inhibitor, partial curve, poor fit]. In the case of `CCN1CCN(c2cc(C)c3cc(NC(=O)CCC(=O)Nc4ccc(OC)cc4OC)ccc3n2)CC1`, the Potency is reported as active: 13.1 µM. In the case of `Cc1cc(/C=N/n2cnnc2)c(C)n1-c1cc(Cl)ccc1Cl`, the Potency is reported as inconclusive [inhibitor, single point]. In the case of `CCc1nnc(NC(=O)OCc2ccccc2)s1`, the Potency is reported as “inactive”. In the case of `NC(=O)NC(=O)COC(=O)[C@H](Cc1ccccc1)NC(=O)c1cccs1`, the Potency is reported as inconclusive [inhibitor, single point]. For `O[C@@H]1CN(Cc2ccc(-n3cccn3)cc2)CC[C@H]1N1CCN(c2ccccc2F)CC1`, the Potency was inconclusive [inhibitor, partial curve, poor fit]. With `CN1CCN(C2CC(=O)N(Cc3ccc(N4CCCC4=O)cc3)C2=O)CC1` (configuration not stated) the Potency was “inactive”. With `NC1CCCCC1N=Cc1c(O)n(Cc2ccc(F)cc2)c(=O)[nH]c1=O` (configuration not stated) the Potency was inconclusive [inhibitor, single point]. With `COc1cc(/C=C/C(=O)OCC(=O)N(C)C2CCS(=O)(=O)C2)ccc1OC(F)F` (configuration not stated) the Potency was inconclusive [inhibitor, partial curve, poor fit]. With `O=C(CN1C(=O)c2ccccc2S1(=O)=O)Nc1ccccc1C(=O)NCc1ccco1` the Potency was “inactive”. In the case of `Nn1c(SCC(=O)Nc2ccc(F)cc2)nnc1-c1ccccn1`, the Potency is reported as “inactive”. With `COc1ccc(C2=NNC(c3cc(Cl)cc4c3OCOC4)C2)c(O)c1` (configuration not stated) the Potency was active: 8.28 µM. In the case of `CC(C)CC(NC(=O)C1CCC(=O)N1C(=O)OCc1ccccc1)C(=O)NC(Cc1ccccc1)C(N)=O` (configuration not stated), the Potency is reported as active: 10.4 µM. For `Cc1ccc2[nH]c3c(=O)n(CC(=O)NCCc4ccc(Cl)cc4)ncc3c2c1`, the Potency was inconclusive [inhibitor, single point]. For `CC(=O)OCC1=C(C(=O)O)N2C(=O)C(NC(=O)c3ccc(COc4cccc(Cl)c4Cl)o3)C2SC1` (configuration not stated), the Potency was inconclusive [inhibitor, partial curve, poor fit]. For `COc1ccc(NC(=O)c2cccc(S(=O)(=O)N3CCN(C)CC3)c2)c(OC)c1`, the Potency was inconclusive [inhibitor, single point]. With `COc1cc(/C=N/NC(=S)NC2CC3CCC2C3)ccc1O` (configuration not stated) the Potency was “inactive”. With `O=C(COC(=O)C1(c2ccccc2F)CCCC1)N1CCNC1=O` the Potency was inconclusive [inhibitor, full curve, poor fit]. With `COCCOC(=O)C1=C(C)N(Cc2ccccc2)C(=O)NC1c1cccc(OC)c1OC` (configuration not stated) the Potency was inconclusive [inhibitor, partial curve, poor fit]. With `COCCCn1c(=O)c2sccc2n2c(CCCC(=O)NCc3ccc(F)cc3)nnc12` the Potency was inconclusive [inhibitor, partial curve, poor fit]. With `O=C(C(Cc1ccccc1)NS(=O)(=O)c1cccc2nsnc12)N1CCC2(CC1)OCCO2` (configuration not stated) the Potency was inconclusive [inhibitor, partial curve, poor fit]. In the case of `CCCCCCn1c(N2CCN(c3cccc(Cl)c3)CC2)nc2c1c(=O)[nH]c(=O)n2C`, the Potency is reported as inconclusive [inhibitor, single point]. With `O=C(COC(=O)C1CC2C=CC1C2)Nc1ccccc1F` (configuration not stated) the Potency was “inactive”. In the case of `NS(=O)(=O)c1ccc(NC(=S)N2CCC(O)CC2)cc1`, the Potency is reported as inconclusive [inhibitor, full curve, poor fit]. In the case of `CCC(C)N(C(=O)COc1ccc(Br)cc1C=O)C1CCS(=O)(=O)C1` (configuration not stated), the Potency is reported as “inactive”. For `COc1ccc(OC)c(NC(=O)CSc2nc3[nH]c(=O)cc(O)c3s2)c1`, the Potency was inconclusive [inhibitor, partial curve]. For `O=C(O)c1ccc(COc2ccccc2/C=C2\NC(=O)N(Cc3ccc(F)cc3)C2=O)cc1`, the Potency was inconclusive [inhibitor, partial curve]. In the case of `C[C@H]1[C@H]2c3nc4ccccc4n3C[C@H]1ON2C1CCCCC1`, the Potency is reported as inconclusive [inhibitor, partial curve, poor fit]. For `C(=C\c1ccccc1)/CN1CCN(Cc2nc(Cc3ccccc3)no2)CC1`, the Potency was inconclusive [inhibitor, partial curve, poor fit].
